We go through 39 compounds from the supplement of paper PMC9135407.

This experiment concerns primary human hepatic stellate cells (donor 1). Put plainly: scaled lipid accumulation score (0 = DMSO-like, 1 = nortriptyline-like); higher = stronger HSC inactivation (lipid re-accumulation), active = hit call of the paper. The conditions noted are these: 48 h.
Where [1] appears, read: library stock concentration: 10 mM.
The mark [2] stands for this setting: library stock concentration: 3.33 mM.
Setting [3] is: library stock concentration: 80 uM.
Setting [4] is: library stock concentration: 400 uM.
The mark [5] stands for this setting: library stock concentration: 2 mM.
[6] abbreviates: library stock concentration: 1 mM.

Molecules are shown by their SMILES. “And” between values parts separate entries of the source, which are not always exact repeats. Equal entries are not always repeated. Structures can show the parent of a compound that is named as a salt. Screen size: about 5,800 compounds; about 620 (11%) showed activity.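 The calls were made as follows: active = score above a cut-off or among the top three wells of a plate; in these data no inactive exceeds 0.85.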 The entries are a selection whose mix differs from that of the whole data set. Bounds are passed on as bounds.

Regarding `O=C(CCCCCCC(=O)Nc1ccccc1)NO`, the “scaled lipid accumulation score” value under setting [1] was inactive: 0.632.
As to `O=C(CCCCCCC(=O)Nc1ccccc1)NO` [Vorinostat (SAHA, MK0683)], the “scaled lipid accumulation score” value by setting is: under setting [2], inactive: 0.513; under setting [1], inactive: 0.397.
Regarding `O=C(CCCCCCC(=O)Nc1ccccc1)NO` [Vorinostat], the “scaled lipid accumulation score” value is, setting by setting: under setting [3], inactive: ≤ 0; under setting [4], inactive: ≤ 0; under setting [5], inactive: ≤ 0; under setting [1], inactive: 0.451.
Turning to `CCc1ccc2c(-c3cccc(Cl)c3)nc(=O)n(CC)c2n1`, the “scaled lipid accumulation score” value under setting [1] is inactive: ≤ 0 and inactive: 0.01.
For `CNS(=O)(=O)c1ccc(NC(=O)c2ccccc2C(=O)O)cc1` [Phthalysulfathiazole], the “scaled lipid accumulation score” value (library stock concentration: 4.8 mM) was inactive: ≤ 0.
`CCCCCC(O)C=CC1C=CC(=O)C1CCCCCCC(=O)O` (stereo not drawn) [15-epi Prostaglandin A1]: the “scaled lipid accumulation score” value under setting [6] was inactive: ≤ 0.
As to `CCCCCC(O)C=CC1C=CC(=O)C1CCCCCCC(=O)O` (stereo not given) [8-iso Prostaglandin A1], the “scaled lipid accumulation score” value under setting [6] was inactive: ≤ 0.
Consider `COC(=O)C1=C(C)NC(C)=C(C(=O)OC2CCCN(Cc3ccccc3)C2)C1c1cccc([N+](=O)[O-])c1` (stereo not given), for which, under setting [1], the “scaled lipid accumulation score” value was inactive: 0.032.
Consider `COC(=O)C1=C(C)NC(C)=C(C(=O)OC2CCCN(Cc3ccccc3)C2)C1c1cccc([N+](=O)[O-])c1` (stereo not given) [Benidipine HCl], for which the “scaled lipid accumulation score” value under setting [2] was inactive: 0.027 and the “scaled lipid accumulation score” value under setting [1] was inactive: 0.476.
As to `CCNC(=O)CCC/C=C\C[C@@H]1[C@@H](/C=C/[C@@H](O)CCc2ccccc2)[C@H](O)C[C@@H]1O` [Bimatoprost], the “scaled lipid accumulation score” value is inactive: ≤ 0 under setting [2] and inactive: ≤ 0 under setting [1].
`COc1ccc(S(=O)(=O)Nc2cccnc2Nc2ccc(O)cc2)cc1`: the “scaled lipid accumulation score” value under setting [3] was inactive: ≤ -0.016; the “scaled lipid accumulation score” value under setting [4] was inactive: ≤ -0.016; the “scaled lipid accumulation score” value under setting [5] is inactive: ≤ -0.016; the “scaled lipid accumulation score” value under setting [2] is inactive: 0.183; the “scaled lipid accumulation score” value under setting [1] is inactive: 0.12 and inactive: 0.192.
Turning to `C[C@]12C[C@H](O)[C@H]3[C@@H](CCC4=CC(=O)CC[C@@]43C)[C@@H]1CC[C@@H]2C(=O)CO` [Corticosterone], the “scaled lipid accumulation score” value was inactive: 0.166. In addition, where the note is “library stock concentration: 5.8 mM”, the “scaled lipid accumulation score” value was inactive: ≤ 0. Further, the “scaled lipid accumulation score” value under setting [1] is inactive: 0.132.
For `C[C@]12C[C@H](O)[C@H]3[C@@H](CCC4=CC(=O)CC[C@@]43C)[C@@H]1CC[C@@H]2C(=O)CO`, the “scaled lipid accumulation score” value under setting [1] is inactive: 0.039.
Take `Cc1ccc(NC(=O)c2cccc(N(C)C)c2)cc1NC(=O)c1ccc(O)cc1`: the “scaled lipid accumulation score” value under setting [1] is inactive: ≤ -0.004.
On the same count and under the same terms, next, `CC1(C)O[C@@H]2C[C@H]3[C@@H]4CCC5=CC(=O)C=C[C@]5(C)[C@H]4[C@@H](O)C[C@]3(C)[C@]2(C(=O)CO)O1`: inactive: ≤ 0.
In the case of `CC1(C)O[C@@H]2C[C@H]3[C@@H]4CCC5=CC(=O)C=C[C@]5(C)[C@H]4[C@@H](O)C[C@]3(C)[C@]2(C(=O)CO)O1` [Desonide], the “scaled lipid accumulation score” value was inactive: 0.006 under setting [2] and inactive: ≤ 0 under setting [1].
On the same counts, the results for `O=C(O)c1ccc2c(c1)nc(Nc1cccc(Cl)c1)c1ccncc12` [CX-4945 (Silmitasertib)] are inactive: ≤ 0 and inactive: ≤ 0.
`O=C(O)c1ccc2c(c1)nc(Nc1cccc(Cl)c1)c1ccncc12`: the “scaled lipid accumulation score” value was inactive: ≤ -0.005 under setting [4], inactive: ≤ -0.005 under setting [5] and inactive: ≤ -0.005 under setting [1].
Regarding `c1ccc(-c2ccccn2)nc1` [2,2'-Bipyridyl], under setting [1], the “scaled lipid accumulation score” value was inactive: 0.067.
As for `COc1ccccc1N1CCN(CCN(C(=O)c2ccc(F)cc2)c2ccccn2)CC1` [p-MPPF dihydrochloride], the “scaled lipid accumulation score” value under setting [1] was inactive: ≤ -0.055.
Take `O=C1CC(=O)c2c(Cl)c(Cl)c(Cl)c(Cl)c21`: the “scaled lipid accumulation score” value reads like this: under setting [2], inactive: ≤ -0.009; under setting [1], inactive: 0.011.
On the same counts, the results for `Nc1nonc1C(=Nc1ccc(F)c(Cl)c1)NO` are inactive: ≤ -0.009 and inactive: ≤ 0.
Regarding `Cl.Cl.O=S(=O)(NCCNC/C=C/c1ccc(Br)cc1)c1cccc2cnccc12` [H 89 dihydrochloride], the “scaled lipid accumulation score” value under setting [1] is active: 1.26.
Consider `NCCCCCNCC12CC3CC(CC(C3)C1)C2` [IEM 1754 dihydrobroMide], for which the “scaled lipid accumulation score” value runs as follows: under setting [2], inactive: 0.109; under setting [1], inactive: 0.358.
`Oc1ccc(Cn2cc[nH]c2=S)cc1` [1-(4-Hydroxybenzyl)imidazole-2-thiol]: the “scaled lipid accumulation score” value under setting [1] was inactive: ≤ -0.07.
`Cc1ccccc1-c1cccc(N2CCC(N3CCN(C)C(C)C3)CC2)c1` (stereo not given): the “scaled lipid accumulation score” value under setting [1] was active: 1.05.
Turning to `CC(=O)N[C@@H](CS)C(=O)O` [Acetylcysteine], the “scaled lipid accumulation score” value is inactive: ≤ 0 under setting [2], inactive: ≤ 0 under setting [1] and inactive: 0.005 (library stock concentration: 12.3 mM).
For the compound `CC(=O)N[C@@H](CS)C(=O)O` [N-Acetyl-L-Cysteine], the “scaled lipid accumulation score” value under setting [1] is inactive: ≤ 0.
Regarding `C[C@]1(c2nc3c(C(N)=O)cccc3[nH]2)CCCN1` [Veliparib], the “scaled lipid accumulation score” value by setting is: under setting [3], inactive: 0.0075; under setting [4], inactive: ≤ -0.0045; under setting [5], inactive: ≤ -0.0045; under setting [1], inactive: ≤ -0.0045.
With `C[C@]1(c2nc3c(C(N)=O)cccc3[nH]2)CCCN1` [Veliparib (ABT-888)], the “scaled lipid accumulation score” value by setting is: under setting [2], inactive: ≤ 0; under setting [1], inactive: ≤ 0.
For `CCCCCC(=O)CC[C@H]1C(=O)C[C@H](O)[C@@H]1C/C=C\CCCC(=O)O` [13,14-dihydro-15-keto Prostaglandin D2], the “scaled lipid accumulation score” value under setting [6] is inactive: ≤ 0.
Regarding `N#C/C(=C\c1ccc(O)c(O)c1)C(=O)NCCc1ccccc1` [Tyrphostin AG 698], the “scaled lipid accumulation score” value under setting [1] is inactive: ≤ 0.
On the same count and under the same terms, next, `O=c1cc(-c2ccccc2)[nH]c2nc(Cl)ccc12` [7-Chloro-4-hydroxy-2-phenyl-1,8-naphthyridine]: inactive: ≤ 0.
Still for that read-out and setting: next, `O=C(O)Cc1cccc(OCCCN(Cc2cccc(C(F)(F)F)c2Cl)CC(c2ccccc2)c2ccccc2)c1` [GW 3965 hydrochloride]: inactive: ≤ -0.001.
On to `O=C(O)Cc1cccc(OCCCN(Cc2cccc(C(F)(F)F)c2Cl)CC(c2ccccc2)c2ccccc2)c1`, for which the “scaled lipid accumulation score” value is inactive: ≤ 0 under setting [2] and inactive: 0.181 under setting [1].
As to `O=c1[nH]c(=O)c2nc3ccccc3nc2[nH]1` [Alloxazine], the “scaled lipid accumulation score” value under setting [1] is inactive: ≤ 0.
For `CC(=O)O[C@H]1C[C@@]2(C)[C@@H](C[C@@H](O)[C@H]3[C@@]4(C)CC[C@@H](O)[C@@H](C)[C@@H]4CC[C@@]32C)/C1=C(\CCC=C(C)C)C(=O)O` [Fusidic acid], the “scaled lipid accumulation score” value under setting [1] is inactive: ≤ 0.
Turning to `CC(=O)O[C@H]1C[C@@]2(C)[C@@H](C[C@@H](O)[C@H]3[C@@]4(C)CC[C@@H](O)[C@@H](C)[C@@H]4CC[C@@]32C)/C1=C(\CCC=C(C)C)C(=O)O` [Fusidic acid sodium salt], the “scaled lipid accumulation score” value was inactive: ≤ 0.
As for `CC(=O)O[C@H]1C[C@@]2(C)[C@@H](C[C@@H](O)[C@H]3[C@@]4(C)CC[C@@H](O)[C@@H](C)[C@@H]4CC[C@@]32C)/C1=C(\CCC=C(C)C)C(=O)O` [Fusidic acid sodium], the “scaled lipid accumulation score” value under setting [1] was inactive: ≤ -0.07.
